Reference: PubChem BioAssay AID504339 (National Center for Advancing Translational Sciences (NCATS), 2011)
Hit rate of the full screen: of about 390,000 compounds, about 17,000 (4.4%) were called active. The shares of active, inactive and inconclusive entries below differ from those in the screen. Calls follow the shape of the dose curve; as a rule, active = well fitted inhibition curve with a large enough effect; inconclusive = small, poorly fitted or top-dose-only effect; inactive = no such curve, though single readings can be large or run the other way. Potencies beside an inconclusive call are fits to weak or partial responses and may not hold up.

These compounds were tested against Lysine-specific demethylase 4A (Homo sapiens) (UniProt O75164) (assay: qHTS Assay for Inhibitors of JMJD2A-Tudor Domain). Details: AlphaScreen JMJD2A-Tudor / H3K4me3 peptide binding; series mostly up to 114 µM.
Also: nearly all actives have a fitted effect of over 50% in size.
Potency is read from the fitted curve at half-maximal effect; tags tell the direction and shape of the fitted curve.

Chain of UniProt O75164 (O75164 whole entry, looked up, the tested form may be a part): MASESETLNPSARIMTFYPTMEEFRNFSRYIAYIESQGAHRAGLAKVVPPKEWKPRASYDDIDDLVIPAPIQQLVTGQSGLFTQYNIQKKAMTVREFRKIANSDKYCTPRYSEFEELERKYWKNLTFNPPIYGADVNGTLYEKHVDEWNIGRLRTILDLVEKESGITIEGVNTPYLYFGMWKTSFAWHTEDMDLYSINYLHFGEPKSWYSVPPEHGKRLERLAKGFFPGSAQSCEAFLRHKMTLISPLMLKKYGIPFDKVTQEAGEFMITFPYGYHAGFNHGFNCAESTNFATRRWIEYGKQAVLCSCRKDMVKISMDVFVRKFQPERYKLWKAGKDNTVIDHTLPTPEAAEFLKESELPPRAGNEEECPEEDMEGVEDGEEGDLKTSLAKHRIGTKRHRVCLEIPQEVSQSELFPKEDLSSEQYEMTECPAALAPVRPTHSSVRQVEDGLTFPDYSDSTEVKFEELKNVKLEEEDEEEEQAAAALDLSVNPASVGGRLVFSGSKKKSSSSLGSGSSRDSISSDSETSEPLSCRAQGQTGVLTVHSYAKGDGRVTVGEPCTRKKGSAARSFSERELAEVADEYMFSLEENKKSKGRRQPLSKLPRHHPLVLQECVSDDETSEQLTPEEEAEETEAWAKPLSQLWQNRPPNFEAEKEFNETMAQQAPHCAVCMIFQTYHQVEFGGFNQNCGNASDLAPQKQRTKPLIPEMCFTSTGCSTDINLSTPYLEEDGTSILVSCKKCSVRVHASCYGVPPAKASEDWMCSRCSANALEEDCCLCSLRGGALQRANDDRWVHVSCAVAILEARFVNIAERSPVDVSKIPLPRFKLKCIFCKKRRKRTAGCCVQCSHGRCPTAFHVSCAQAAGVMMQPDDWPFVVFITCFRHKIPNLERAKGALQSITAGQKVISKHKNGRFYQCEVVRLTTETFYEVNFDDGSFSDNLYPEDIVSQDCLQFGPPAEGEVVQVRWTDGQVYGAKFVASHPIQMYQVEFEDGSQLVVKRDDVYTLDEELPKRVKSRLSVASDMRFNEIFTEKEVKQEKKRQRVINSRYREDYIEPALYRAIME

SMILES | Potency
CCOC(=O)C1CCCN(Cc2cc(Br)ccc2OC)C1 (stereo not given) | inconclusive: 1.41 µM [inhibitor, full curve, poor fit]
CCCc1ccc(-c2cc(C(=O)N/N=C/c3ccc([N+](=O)[O-])o3)c3ccccc3n2)cc1 | inconclusive: 50.1 µM [inhibitor, partial curve]
COC(=O)COc1ccc(S(=O)(=O)N2CCN(c3ccccc3)CC2)cc1 | inactive
COc1nnc(-c2ccc(N3CCCCC3)c(N)c2)c2ccccc12 | inconclusive: 56.2 µM [inhibitor, partial curve]
O=C(CCn1c(=O)c2cccn2c2cccnc21)NCc1ccc(F)cc1 | inactive
N#C/C(=C\c1ccc(OCc2ccc(Br)cc2)cc1)C(=O)Nc1cccc(C(=O)O)c1 | active: 39.8 µM
O=C(CN1C(=O)/C(=C\c2ccccc2F)SC1=S)Nc1nc2ccccc2s1 | inconclusive: 22.4 µM [inhibitor, partial curve]
COc1ccc(-c2c3c(=O)n(C)c(=O)n(C)c3c3n2-c2ccccc2NC3c2ccco2)cc1 (stereo not given) | inactive
Cc1cc(N2C(=O)C(O)=C(C(=O)c3ccco3)C2c2ccc(O)cc2)no1 (stereo not given) | inconclusive: 89.1 µM [inhibitor, single point]
Cc1ccc(NC(=O)c2ccc3c(c2)CCC(=O)N3)cc1C | inconclusive: 100 µM [inhibitor, single point]
COc1cccc(Nc2nc(-c3sc(N)nc3C)cs2)c1 | inconclusive: 50.1 µM [inhibitor, partial curve]
COc1ccccc1C(O)c1nccn1Cc1ccccc1 (stereo not given) | inactive
CCNC(=S)NNC(=O)CCn1c2ccccc2c2ccccc21 | inactive
O=C(COc1cccc(Br)c1)N/N=C1\CCSC1 | active: 70.8 µM
COc1ccc(Br)cc1CN1CCC(N2CCCC2)CC1 | inconclusive: 0.708 µM [inhibitor, full curve, poor fit]
COc1ccc(NC(=O)CNc2cccc(S(=O)(=O)N3CCCCCC3)c2)c([N+](=O)[O-])c1 | inconclusive: 1.58 µM [inhibitor, full curve, poor fit]
CC(=O)NCCCNC(=S)NCCCN(Cc1ccc(Cl)cc1)c1ccc(Br)cn1 | inconclusive: 44.7 µM [inhibitor, partial curve]
O=[N+]([O-])c1cccnc1SCc1ccccc1 | active: 14.1 µM
CC(C)c1ccc(NC(=O)COc2nnc(-c3cccs3)c(-c3cccs3)n2)cc1 | inconclusive: 50.1 µM [inhibitor, partial curve]
O=C(CSc1ccc(-c2ccccn2)nn1)N1CCCC1 | active: 3.16 µM
Cc1cc(C)cc(NC(=O)Cn2nnc(C(=O)NCc3ccc(F)cc3)c2N)c1 | active: 10 µM
Cc1ccccc1Cn1nc(C)c(NC(=O)/C=C/c2cnn(C)c2)c1C | inconclusive: 63.1 µM [inhibitor, single point]
O=C(/C=C/c1ccccc1)NCCc1ccccc1 | inconclusive: 44.7 µM [inhibitor, partial curve, poor fit]
COc1ccc2c(C(=O)NCc3ccc4c(c3)OCO4)c(-c3ccc(S(C)(=O)=O)cc3)sc2c1 | inactive

SMILES | Potency
COc1cccc(/C=N/NC(=O)Cn2nc(C)c([N+](=O)[O-])c2C)c1O | inactive
CCN(CC(=O)Nc1c(F)cccc1F)C(=O)/C=C/c1ccc2c(c1)OCO2 | inactive
COc1cc2c(cc1NC(=O)CSc1nc3ccccc3[nH]1)oc1ccccc12 | inconclusive: 100 µM [inhibitor, partial curve]
Cc1ccc(/C=N/Nc2cccc(C(=O)O)c2)s1 | inconclusive: 63.1 µM [inhibitor, single point]
CC[C@@H](C)[C@@H]1CN([C@@H](C)CN2CCC[C@H]2CN2C(N)=NC[C@H]2C(C)C)C(=N)N1CCc1ccc(Cl)c(Cl)c1 | inconclusive: 79.4 µM [inhibitor, partial curve]
CCOC(=O)C1(CCOc2ccccc2)CCN(Cc2cc(OC)c(O)c(OC)c2)CC1 | inconclusive: 100 µM [inhibitor, partial curve]
Cc1ccc(-n2ncc(C(=O)NCc3ccco3)c2C2CCN(C(=O)OC(C)(C)C)CC2)c(C)c1 | inconclusive: 56.2 µM [inhibitor, partial curve]
COc1ccccc1Nc1c2ccccc2nc2ccccc12 | inconclusive: 56.2 µM [inhibitor, partial curve]
CCN(CC)c1ccc(C(=C2C=CC(=[N+](CC)CC)C=C2)c2ccc(S(=O)(=O)O)cc2S(=O)(=O)[O-])cc1 | inconclusive: 50.1 µM [inhibitor, partial curve]
CCCCN(CCCNC(=O)c1cc(Nc2ccc(OC)c(OC)c2)nc2ccccc12)Cc1ccccc1 | active: 28.2 µM
CCOC(=O)C1=C(C)N=C2SCCC(=O)N2C1c1ccc(OCc2ccccc2)cc1 (stereo not given) | inactive
Cn1c(CN2CCCC2)c(C#N)c2ccccc21 | inactive
COC(=O)c1c(NC(=O)CCCOc2cccc(C)c2)sc2c1C(C(=O)OC)CC2 (stereo not given) | inconclusive: 56.2 µM [inhibitor, partial curve, poor fit]
CC(C)(C)OC(=O)NCCC(=O)N/N=C/c1cccc2cccnc12 | inconclusive: 17.8 µM [inhibitor, partial curve]
CCN1C(=O)/C(=C\C(=O)c2cccs2)c2cc(Br)ccc21 | active: 28.2 µM
COc1cccc(C2c3c(ncn(-c4ccc(C(C)(C)C)cc4)c3=N)Oc3ccc4ccccc4c32)c1 (stereo not given) | inconclusive: 39.8 µM [inhibitor, partial curve]
CC1=Nc2ccccc2/C1=C/c1sc(=S)n(-c2cccc(C(=O)O)c2)c1O | inconclusive: 63.1 µM [inhibitor, partial curve]
CCOc1ccc(CCNS(=O)(=O)c2cc(Br)cc3c2N(C(C)=O)CC3)cc1OCC | inactive
CCC(Sc1nc2ccccc2c(=O)n1CCc1ccc(OC)c(OC)c1)C(=O)N(CC)CC (stereo not given) | inactive
Cn1cnnc1Sc1ccc(/C=C(\CCC(=O)O)c2nc3ccccc3s2)cc1[N+](=O)[O-] | inactive
CC1CSc2nc3sc4c(c3c(=O)n21)CCCC4 (stereo not given) | inactive
CCN(CC)c1ccc(NC(=O)CN2CCN(CC(=O)Nc3ccc(F)cc3)CC2)cc1 | inconclusive: 56.2 µM [inhibitor, partial curve]
CCc1cccc(C)c1NC(=S)NCc1ccc2c(c1)cc(C)n2C | active: 50.1 µM
O=C(O)C(c1ccccc1)N1C(=O)/C(=C\c2ccc(O)c(O)c2)SC1=S (stereo not given) | active: 20 µM

SMILES | Potency
Cc1cc(C)cc(NS(=O)(=O)c2cc3c(cc2C)NC(=O)CO3)c1 | inconclusive: 56.2 µM [inhibitor, partial curve]
Clc1ccc(-c2noc3ncnc(NCCc4ccccc4)c23)cc1 | inactive
CC(C)C(=O)NNS(=O)(=O)c1ccccc1[N+](=O)[O-] | inconclusive: 44.7 µM [inhibitor, single point]
O=C(c1ccc(Cl)c([N+](=O)[O-])c1)N1CCN(c2ccccc2)CC1 | inconclusive: 100 µM [inhibitor, partial curve, poor fit]
C/C(=N\Nc1ccc(Cl)c(C(=O)O)c1)c1ccc[nH]1 | inconclusive: 44.7 µM [inhibitor, single point]
COc1ccc(NC(=S)N2CCC(C(=O)c3ccc(F)cc3)CC2)cc1 | inactive
COc1ccc(-n2nc3c(c2NC(=O)COc2cccc(OC)c2)CS(=O)(=O)C3)cc1 | inconclusive: 22.4 µM [inhibitor, partial curve]
CCOC(=O)[C@H]1[C@H]2COc3ccc(Cl)cc3[C@@H]2N2C(=O)c3ccccc3NC(=O)[C@@]12C | inactive
COc1ccc(Cl)cc1NC(=O)c1nn(-c2ccc(C)cc2)c(=O)n(C)c1=O | inactive
O=C(CNCc1ccc(F)cc1)Nc1ccccc1[N+](=O)[O-] | inconclusive: 20 µM [inhibitor, full curve, poor fit]
COc1ccc(OC)c(NC(=O)CCC(=O)N(Cc2ccc(OC)c(OC)c2)c2nccs2)c1 | inconclusive: 50.1 µM [inhibitor, partial curve]
CCOC(=O)c1c(C)[nH]c(C)c1S(=O)(=O)N1CCCC(C(=O)N2CCN(c3cccc(C)c3C)CC2)C1 (stereo not given) | inconclusive: 56.2 µM [inhibitor, partial curve]
O=C(C1CCC1)N1CCc2cc(S(=O)(=O)NCC3COc4ccccc4O3)ccc21 (stereo not given) | inconclusive: 79.4 µM [inhibitor, partial curve]
CCSc1nc(-c2ccco2)ccc1C#N | inconclusive: 100 µM [inhibitor, single point]
Cc1cc(C(=O)COC(=O)C2=NNC(=O)CC2)c(C)n1-c1ccc(OC(F)F)cc1 | inconclusive: 79.4 µM [inhibitor, single point]
CC(=O)C1=C(c2ccccc2)NC(=O)NC1c1ccc2c(c1)OCO2 (stereo not given) | inactive
COc1ccccc1N1CC(C(=O)Nc2nnc(SCc3ccccn3)s2)CC1=O (stereo not given) | inactive
CC(C)CC(NC(N)=O)C(=O)OCC(=O)Nc1ccc(OC(F)F)cc1 (stereo not given) | active: 39.8 µM
COc1cc(C2c3sc(=O)[nH]c3SC3C4CCC(C4)C23)ccc1O (stereo not given) | inconclusive: 44.7 µM [inhibitor, partial curve]
COc1cc(OC)c(OC)cc1CN1CCN(S(=O)(=O)c2ccc(NC(C)=O)cc2)CC1 | active: 1 µM
Cc1cc(C)c(C(=O)CSc2nnc(N)s2)c(C)c1 | inactive
Cc1ccc(-c2[nH]c(-c3ccc(C(=O)O)cc3)nc2-c2ccccc2)cc1 | inconclusive: 56.2 µM [inhibitor, partial curve]
